Measurements: article PMC7467691, “Meiotic chromosome synapsis depends on multivalent SYCE1-SIX6OS1 interactions that are disrupted in cases of human infertility” (Science Advances, 2020)
Results are given in words; binding and its absence hold for the method and conditions named. For some of these results: In cells and extracts the contact can be indirect. Some results given as binding are weak or reduced against the parent protein; the word gives no strength. For some of these results: Tags and fused reporters may be left off the sequences shown.

Tests used:
[1] = target: T1, SYCE1 (mouse, construct of the co-immunoprecipitation with SYCE3, Fig. 4D) (mouse) (UniProt Q9D495); assay: co-IP; HEK293T cells cotransfected; whole-cell extracts; immunoprecipitation with anti-Flag, anti-EGFP or anti-Myc antibodies, mouse IgG as negative control; protein G Sepharose; immunoblot
T1 sequence: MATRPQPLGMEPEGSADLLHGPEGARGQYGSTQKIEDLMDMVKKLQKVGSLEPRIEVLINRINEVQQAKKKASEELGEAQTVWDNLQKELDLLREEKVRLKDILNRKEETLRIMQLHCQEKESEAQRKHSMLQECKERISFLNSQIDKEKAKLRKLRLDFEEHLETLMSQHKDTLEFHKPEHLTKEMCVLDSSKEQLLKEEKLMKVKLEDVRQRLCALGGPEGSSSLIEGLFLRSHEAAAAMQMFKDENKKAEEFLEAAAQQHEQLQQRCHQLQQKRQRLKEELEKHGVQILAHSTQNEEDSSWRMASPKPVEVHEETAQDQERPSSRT

[2] = target: T2, SIX6OS1 Δ10–21 (mouse) (mouse) (UniProt Q9CTN5); assay: as above
T2 sequence: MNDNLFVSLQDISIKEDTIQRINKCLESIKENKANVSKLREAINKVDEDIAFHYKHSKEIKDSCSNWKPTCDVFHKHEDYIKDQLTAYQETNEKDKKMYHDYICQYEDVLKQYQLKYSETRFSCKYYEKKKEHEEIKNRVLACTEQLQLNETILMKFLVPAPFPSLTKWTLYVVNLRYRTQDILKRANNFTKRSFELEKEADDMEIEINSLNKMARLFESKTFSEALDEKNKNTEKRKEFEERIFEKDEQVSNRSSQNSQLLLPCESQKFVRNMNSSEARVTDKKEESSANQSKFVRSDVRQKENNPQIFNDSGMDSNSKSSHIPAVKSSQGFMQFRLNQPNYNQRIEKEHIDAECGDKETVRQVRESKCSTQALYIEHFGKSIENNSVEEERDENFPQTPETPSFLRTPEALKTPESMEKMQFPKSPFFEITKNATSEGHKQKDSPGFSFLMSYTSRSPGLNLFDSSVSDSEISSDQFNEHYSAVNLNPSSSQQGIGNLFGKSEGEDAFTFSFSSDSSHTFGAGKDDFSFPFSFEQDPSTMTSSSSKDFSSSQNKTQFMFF

[3] = target: T3, full-length SIX6OS1 Δ10–21, yeast two-hybrid fusion (human) (UniProt Q8N1H7); assay: two-hybrid; Matchmaker Gold; pGBKT7 in Y187 mated with pGADT7 in Y2H gold; SD/-Trp/-Leu/-Ade/-His with X-alpha-gal, growth of blue colonies, 5 days at 30°C
T3 sequence: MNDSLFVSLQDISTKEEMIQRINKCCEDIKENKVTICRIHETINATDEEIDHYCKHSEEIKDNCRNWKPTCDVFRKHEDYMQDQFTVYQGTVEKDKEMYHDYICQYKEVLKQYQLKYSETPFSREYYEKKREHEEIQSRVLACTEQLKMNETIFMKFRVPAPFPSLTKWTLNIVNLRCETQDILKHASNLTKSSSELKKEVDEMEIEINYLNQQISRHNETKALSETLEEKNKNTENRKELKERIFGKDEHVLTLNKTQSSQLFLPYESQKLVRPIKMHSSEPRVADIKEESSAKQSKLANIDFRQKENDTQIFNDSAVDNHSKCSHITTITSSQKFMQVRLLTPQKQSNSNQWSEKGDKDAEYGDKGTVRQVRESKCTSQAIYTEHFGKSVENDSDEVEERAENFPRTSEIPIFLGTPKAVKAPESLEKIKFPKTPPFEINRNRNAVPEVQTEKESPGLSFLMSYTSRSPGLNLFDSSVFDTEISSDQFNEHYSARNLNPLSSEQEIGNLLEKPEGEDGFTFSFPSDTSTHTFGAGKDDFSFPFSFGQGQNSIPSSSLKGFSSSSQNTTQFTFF

[4] = target: T4, SIX6OS1 1–75, yeast two-hybrid fusion (human) (UniProt Q8N1H7); assay: as above
T4 sequence: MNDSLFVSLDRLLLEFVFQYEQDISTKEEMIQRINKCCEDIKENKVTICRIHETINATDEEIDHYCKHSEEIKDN

[5] = target: T5, SIX6OS1 1–262, yeast two-hybrid fusion (human) (UniProt Q8N1H7); assay: as above
T5 sequence: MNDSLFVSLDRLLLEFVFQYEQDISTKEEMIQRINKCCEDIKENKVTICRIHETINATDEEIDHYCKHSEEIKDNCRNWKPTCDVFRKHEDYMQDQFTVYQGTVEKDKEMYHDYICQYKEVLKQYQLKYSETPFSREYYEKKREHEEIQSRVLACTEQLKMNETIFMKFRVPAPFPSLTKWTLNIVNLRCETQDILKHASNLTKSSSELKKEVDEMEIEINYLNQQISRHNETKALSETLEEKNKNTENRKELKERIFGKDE

[6] = target: T6, SIX6OS1 1–22, yeast two-hybrid fusion (human) (UniProt Q8N1H7); assay: as above
T6 sequence: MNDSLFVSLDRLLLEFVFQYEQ

[7] = target: T7, SIX6OS1 1–262 Δ10–21, yeast two-hybrid fusion (human) (UniProt Q8N1H7); assay: as above
T7 sequence: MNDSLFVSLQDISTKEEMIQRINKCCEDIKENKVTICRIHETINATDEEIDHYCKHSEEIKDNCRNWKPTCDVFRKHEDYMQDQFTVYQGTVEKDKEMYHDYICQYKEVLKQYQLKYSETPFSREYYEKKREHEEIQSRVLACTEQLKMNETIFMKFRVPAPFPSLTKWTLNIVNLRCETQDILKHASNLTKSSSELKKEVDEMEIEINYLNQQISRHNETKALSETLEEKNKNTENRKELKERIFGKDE

[8] = target: T8, full-length SIX6OS1, yeast two-hybrid fusion (human) (UniProt Q8N1H7); assay: as above
T8 sequence: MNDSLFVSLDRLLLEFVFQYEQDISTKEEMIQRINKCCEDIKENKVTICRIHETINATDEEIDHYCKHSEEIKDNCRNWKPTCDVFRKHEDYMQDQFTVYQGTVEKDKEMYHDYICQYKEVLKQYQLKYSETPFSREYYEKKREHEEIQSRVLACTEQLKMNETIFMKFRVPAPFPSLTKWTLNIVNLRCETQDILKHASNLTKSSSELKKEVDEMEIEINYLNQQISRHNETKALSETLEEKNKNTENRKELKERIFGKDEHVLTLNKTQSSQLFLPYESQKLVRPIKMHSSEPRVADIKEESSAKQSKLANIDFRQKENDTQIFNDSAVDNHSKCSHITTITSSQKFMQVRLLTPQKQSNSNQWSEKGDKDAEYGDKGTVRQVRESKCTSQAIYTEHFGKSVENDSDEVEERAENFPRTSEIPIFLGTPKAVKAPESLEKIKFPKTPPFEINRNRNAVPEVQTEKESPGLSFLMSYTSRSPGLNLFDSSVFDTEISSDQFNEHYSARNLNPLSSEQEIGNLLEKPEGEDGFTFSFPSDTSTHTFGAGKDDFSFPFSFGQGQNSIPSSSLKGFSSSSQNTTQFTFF

[9] = target: T9, MBP-SIX6OS1N (MBP-SIX6OS1 1–67) (human) (UniProt Q8N1H7); assay: pull-down; amylose pulldown following bacterial coexpression of MBP-SIX6OS1 constructs with His-SYCE1core; MBP fusion held on amylose
T9 sequence: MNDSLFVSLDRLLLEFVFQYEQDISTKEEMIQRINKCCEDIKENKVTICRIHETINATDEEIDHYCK

[10] = target: T9, MBP-SIX6OS1N (MBP-SIX6OS1 1–67) (human); assay: SEC-MALS; 5 to 20 mg/ml in 20 mM tris (pH 8.0), 150 mM KCl, 2 mM DTT; Superdex 200 Increase 10/300 GL at 0.5 ml/min; both purified

B1: SYCE3 (mouse) (protein, UniProt B5KM66 1-88)
chain: MADSDPGERSYDNMLKMLSDLNKDLEKLLEEMEKISVQATWMAYDMVVMRTNPTLAESMRRLEDAFLNCKEEMEKNWQELLTETKRKQ
binding [1]: binds weakly

B2: Flag-mSYCE1 (protein, UniProt Q9D495 1-329)
chain: MATRPQPLGMEPEGSADLLHGPEGARGQYGSTQKIEDLMDMVKKLQKVGSLEPRIEVLINRINEVQQAKKKASEELGEAQTVWDNLQKELDLLREEKVRLKDILNRKEETLRIMQLHCQEKESEAQRKHSMLQECKERISFLNSQIDKEKAKLRKLRLDFEEHLETLMSQHKDTLEFHKPEHLTKEMCVLDSSKEQLLKEEKLMKVKLEDVRQRLCALGGPEGSSSLIEGLFLRSHEAAAAMQMFKDENKKAEEFLEAAAQQHEQLQQRCHQLQQKRQRLKEELEKHGVQILAHSTQNEEDSSWRMASPKPVEVHEETAQDQERPSSRT
binding [2]: binds

B3: SYCE1core (25–179), yeast two-hybrid fusion (domain or fragment, UniProt Q8N0S2 25-179)
chain: GQDTSSQKIEDLMEMVQKLQKVGSLEPRVEVLINRINEVQQAKKKANKDLGEARTICEALQKELDSLHGEKVHLKEILSKKQETLRILRLHCQEKESEAHRKHTMLQECKERISALNLQIEEEKNKQRQLRLAFEEQLEDLMGQHKDLWDFHMPE
binding [3]: no binding
binding [4]: binds
binding [5]: binds
binding [6]: no binding
binding [7]: no binding
binding [8]: binds

B4: His-SYCE1core (domain or fragment, UniProt Q8N0S2 25-179)
chain: GQDTSSQKIEDLMEMVQKLQKVGSLEPRVEVLINRINEVQQAKKKANKDLGEARTICEALQKELDSLHGEKVHLKEILSKKQETLRILRLHCQEKESEAHRKHTMLQECKERISALNLQIEEEKNKQRQLRLAFEEQLEDLMGQHKDLWDFHMPE
binding [9]: binds

B5: MBP-SIX6OS1N (MBP-SIX6OS1 1–67) (domain or fragment, UniProt Q8N1H7 1-67)
chain: MNDSLFVSLDRLLLEFVFQYEQDISTKEEMIQRINKCCEDIKENKVTICRIHETINATDEEIDHYCK
binding [10]: no binding (tested: 5 to 20 mg/ml)
